# Laboratory results taken from the supplement of paper PMC8728848.
# Some of the results follow.
# What was measured:
# Assay in all cases: glycan array binding signal (z-score within array); higher = stronger binding
# Conditions in all cases: glycan notation: IUPAC condensed, linker removed
# [1] = target: Neu5Ac(a2-6)GalNAc(b1-4)GlcNAc6S
# Procedure, shortened: (§1)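 Arrays were curated from the Consortium for Functional Glycomics database, 3228 in total, and kept only where the protein sequence was available. Binding is expressed as a within-array Z-score. This score was averaged across arrays of the same protein sequence at different concentrations or buffers and across linkers, and negative values can be read as non-binding.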
# [2] = target: Neu5Ac(a2-6)GlcNAc(b1-4)GlcNAc
# Procedure, shortened: as §1
# [3] = target: Neu5Ac(a2-6)GlcNAc(b1-4)GlcNAc(b1-4)GlcNAc
# Procedure, shortened: as §1
# Neu5Ac(a2-8)Neu5Ac = target: Neu5Ac(a2-8)Neu5Ac
# Procedure, shortened: as §1
# [4] = target: Neu5Ac(a2-8)Neu5Ac(a2-3)Gal(b1-3)GalNAc(b1-4)[Neu5Ac(a2-8)Neu5Ac(a2-3)]Gal(b1-4)Glc
# Procedure, shortened: as §1
# [5] = target: Neu5Ac(a2-8)Neu5Ac(a2-3)Gal(b1-4)Glc
# Procedure, shortened: as §1
# [6] = target: Neu5Ac(a2-8)Neu5Ac(a2-3)[Gal(b1-3)GalNAc(b1-4)]Gal(b1-4)Glc
# Procedure, shortened: as §1
# [7] = target: Neu5Ac(a2-8)Neu5Ac(a2-3)[GalNAc(b1-4)]Gal(b1-4)Glc
# Procedure, shortened: as §1
# [8] = target: Neu5Ac(a2-8)Neu5Ac(a2-8)Neu5Ac
# Procedure, shortened: as §1
# [9] = target: Neu5Ac(a2-8)Neu5Ac(a2-8)Neu5Ac(a2-3)Gal(b1-4)Glc
# Procedure, shortened: as §1
# [10] = target: Neu5Ac(a2-8)Neu5Ac(a2-8)Neu5Ac(a2-3)[GalNAc(b1-4)]Gal(b1-4)Glc
# Procedure, shortened: as §1
# [11] = target: Neu5Ac(a2-8)Neu5Ac(a2-8)Neu5Ac(a2-8)Neu5Ac(a2-3)[GalNAc(b1-4)]Gal(b1-4)Glc
# Procedure, shortened: as §1
# [12] = target: Neu5Ac(b2-6)Gal(b1-4)GlcNAc
# Procedure, shortened: as §1
# Neu5Ac(b2-6)GalNAc = target: Neu5Ac(b2-6)GalNAc
# Procedure, shortened: as §1
# [13] = target: Neu5Ac9Ac(a2-3)Gal(b1-3)GlcNAc
# Procedure, shortened: as §1
# [14] = target: Neu5Ac9Ac(a2-3)Gal(b1-4)GlcNAc
# Procedure, shortened: as §1
# [15] = target: Neu5Ac9Ac(a2-6)Gal(b1-4)GlcNAc
# Procedure, shortened: as §1
# [16] = target: Neu5Gc(a2-3)Gal(b1-3)GlcNAc
# Procedure, shortened: as §1
# [17] = target: Neu5Gc(a2-3)Gal(b1-3)[Fuc(a1-4)]GlcNAc
# Procedure, shortened: as §1
# Neu5Gc(a2-3)Gal(b1-4)Glc = target: Neu5Gc(a2-3)Gal(b1-4)Glc
# Procedure, shortened: as §1
# [18] = target: Neu5Gc(a2-3)Gal(b1-4)GlcNAc
# Procedure, shortened: as §1
# [19] = target: Neu5Gc(a2-3)Gal(b1-4)[Fuc(a1-3)]GlcNAc
# Procedure, shortened: as §1
# [20] = target: Neu5Gc(a2-6)Gal(b1-4)GlcNAc
# Procedure, shortened: as §1
# Neu5Gc(a2-6)GalNAc = target: Neu5Gc(a2-6)GalNAc
# Procedure, shortened: as §1
# [21] = target: Neu5Gc(b2-6)Gal(b1-4)GlcNAc
# Procedure, shortened: as §1
binder,measurement,setting,value
"PitA (Streptococcus oralis), G3F8D8 (protein) MNIRFDFKKVQIIARRLVTLLAILFLCAPISLLNADSTTEPQTTLHKTITPISGQDDKYELSLDITSKLGTETQTDPLDVVLVADLSGSMQNQDVQSFDGRTISRIDALKNTLRGTNGRKGLIDTILSNSNNRLSMVGFGGKIDNKKVDQYWDGNKWRLFRPYWPYERMTKYYDGVSPWDDANTILGWSNNARAAKTAVYNMSIAGGNSIGTESGIGTGTNIGAGLTLANQLMGSARSNAKKVVILLSDGFANMVYDANGYTIYNYNNEDPNIETAPQWFWDRLNNNLNSLSYSLAPTLDGFYSIKFRYSNNVDSITSLQYYMRQHNASIPNEIFSANDEDQLRDSFKDITDKILPLGIHHVSIKDVLSKYVQLLPNGSSEFRVVKEKDGSSEILIENQVTFDTKTTSEGLVEVTAKFSPNYSLEDGARYVLKFTVTSSQEALDAIAGDKKLEAGDAEGSDVNKLYSNKGASVTYSYGIGNSQTKTKEYSDNPTFKPSDPLTVPVEVEWQGVTGARTVITADQPSNVELKLVQKNKNGGSDNQDYRKTNVNVSKNVSNETRNFEKVAKGYQYDLIAPDVPAFTKEIKNVGTESKPSFKVIYKQLPSLTIKKVLEAENNLNKEFRIKVKLTSPDSKPLNGTFGEITVVNGEAEIRVEKRKRWEGILSYLPRGTHYKVEEEAASTNGYHVTYENQEGDLNKDETSIVTNHKLPSLSVTKKVTGVFANLLKSFKITINIRDAQNSPLNGTYTATVNNKRTPLQFTNGRASIDLNKDQTIKIYGLPLDSHYTVEEESNSSRGYQVSYENQEGKLDGDKSATVTNNKNSVPETGVDFLSSTLMLGIILPLGGIFFTILLGYLVVHRRK",glycan array binding signal (z-score),[1],-0.491
same,glycan array binding signal (z-score),[2],-0.617
same,glycan array binding signal (z-score),[3],-0.456
same,glycan array binding signal (z-score),Neu5Ac(a2-8)Neu5Ac,-0.338
same,glycan array binding signal (z-score),[4],-0.308
same,glycan array binding signal (z-score),[5],-0.559
same,glycan array binding signal (z-score),[6],-0.463
same,glycan array binding signal (z-score),[7],-0.367
same,glycan array binding signal (z-score),[8],-0.456
same,glycan array binding signal (z-score),[9],-0.523
same,glycan array binding signal (z-score),[10],-0.451
same,glycan array binding signal (z-score),[11],0.179
same,glycan array binding signal (z-score),[12],-0.514
same,glycan array binding signal (z-score),Neu5Ac(b2-6)GalNAc,-0.451
same,glycan array binding signal (z-score),[13],-0.641
same,glycan array binding signal (z-score),[14],-0.627
same,glycan array binding signal (z-score),[15],-0.288
same,glycan array binding signal (z-score),[16],-0.493
same,glycan array binding signal (z-score),[17],-0.389
same,glycan array binding signal (z-score),Neu5Gc(a2-3)Gal(b1-4)Glc,-0.108
same,glycan array binding signal (z-score),[18],-0.701
same,glycan array binding signal (z-score),[19],-0.209
same,glycan array binding signal (z-score),[20],-0.444
same,glycan array binding signal (z-score),Neu5Gc(a2-6)GalNAc,-0.577
same,glycan array binding signal (z-score),[21],-0.411
